Assay results taken from the antibiotic and cytotoxicity screens of Wong et al. (2023).
The other results are listed elsewhere or left out.

Legend:
HSkMC = human skeletal muscle cells; experiment: cytotoxicity call (relative viability < 0.9); settings: 10 µM
HepG2 = experiment: cytotoxicity call (relative viability < 0.9); settings: 10 µM
S. aureus RN4220 = experiment: growth inhibition call (relative growth <= 0.2); settings: 50 µM

Question: For `COc1ccc(CN(C)C[C@@H]2OCCCC[C@@H](C)Oc3ccc(NC(=O)Nc4ccc(C(F)(F)F)cc4)cc3C(=O)N([C@H](C)CO)C[C@@H]2C)cc1`, which cytotoxicity call (HSkMC) is on record?
Answer: active

Question: What about the cytotoxicity call (HepG2) of the same compound?
Answer: active

Question: And the growth inhibition call (S. aureus RN4220)?
Answer: inactive

Question: How did the cytotoxicity call (HSkMC) turn out when `CC1OC(OC2C(CO)OC(OC3C(CO)OC(O)C(O)C3O)C(O)C2O)C(O)C(O)C1NC1C=C(CO)C(O)C(O)C1O` (centres undefined) was run?
Answer: inactive

Question: And the cytotoxicity call (HepG2)?
Answer: inactive

Question: What about the growth inhibition call (S. aureus RN4220) of the same compound?
Answer: inactive

Question: Which results are given for `CO[C@H]1C[C@@H]2CC[C@@H](C)[C@@](O)(O2)C(=O)C(=O)N2CCCC[C@H]2C(=O)O[C@H]([C@H](C)C[C@@H]2CC[C@@H](OP(C)(C)=O)[C@H](OC)C2)CC(=O)[C@H](C)/C=C(\C)[C@@H](O)[C@@H](OC)C(=O)[C@H](C)C[C@H](C)/C=C/C=C\C=C\1C`?
Answer: cytotoxicity call (HSkMC): inactive; cytotoxicity call (HepG2): inactive; growth inhibition call (S. aureus RN4220): inactive

Question: With `C[C@H](CO)N1C[C@H](C)[C@@H](CN(C)S(=O)(=O)c2cn(C)cn2)Oc2ccc(NC(=O)Cc3ccccc3)cc2C1=O` as the compound, how does the cytotoxicity call (HSkMC) read?
Answer: inactive

Question: And the cytotoxicity call (HepG2)?
Answer: inactive

Question: And the growth inhibition call (S. aureus RN4220)?
Answer: inactive

Question: How did the cytotoxicity call (HSkMC) turn out when `C[C@H]1CN([C@@H](C)CO)C(=O)Cc2cc(NC(=O)CCN3CCOCC3)ccc2O[C@H]1CN(C)CC1CCCCC1` was run?
Answer: inactive

Question: What about the cytotoxicity call (HepG2) of the same compound?
Answer: inactive

Question: And the growth inhibition call (S. aureus RN4220)?
Answer: inactive

Question: Which cytotoxicity call (HSkMC) does the source give for `CCCCCCCCCCOc1cc2c(O)c(C(=O)OCC)cnc2cc1OCC` here?
Answer: inactive

Question: And the cytotoxicity call (HepG2)?
Answer: inactive

Question: And the growth inhibition call (S. aureus RN4220)?
Answer: inactive

Question: `Cc1noc(C)c1NC(=O)N(C)C[C@@H]1OCCCC[C@H](C)Oc2ccc(NC(=O)CCC(F)(F)F)cc2C(=O)N([C@H](C)CO)C[C@@H]1C` was tested. Which cytotoxicity call (HSkMC) did it give?
Answer: inactive

Question: And the cytotoxicity call (HepG2)?
Answer: inactive

Question: What about the growth inhibition call (S. aureus RN4220) of the same compound?
Answer: inactive

Question: Which cytotoxicity call (HSkMC) does the source give for `C[C@H](CO)N1C[C@H](C)[C@@H](CN(C)C(=O)Nc2ccc(C(F)(F)F)cc2)Oc2ccc(NC(=O)Nc3ccc(C(F)(F)F)cc3)cc2CC1=O` here?
Answer: inactive

Question: And the cytotoxicity call (HepG2)?
Answer: active

Question: And the growth inhibition call (S. aureus RN4220)?
Answer: inactive
